# Measurements published in the supplement of paper PMC11383711.
# Some of the results follow. Binding of human antibodies (heavy:light variable regions, tested as scFv in one mRNA-display pool) to influenza hemagglutinin, with or without the stem antibody CR9114 bound first. Score = (mean enrichment − median) / interquartile range of that screen; higher = more enriched, 0 = typical non-binder. Active = above the paper's cut-off per screen: stems 28; unblocked H1 Solomon Islands 5, H1 Michigan 3, H3 5, H5 19, H7 2.85, both B 5; blocked 9, 7, H5 10, H7 10, B Phuket 10, B Lee 11.5. Scores are scaled within each screen and are no affinities; replicates correlate at about 0.6 to 0.9, and antibodies rare in the pool are noisier.
# B1: AG10-3A02 (protein)
# chain 1: VQLVESGGGLVQPGGSLRLSCLGSGFTFSRYSMNWVRQAPGKGLEWVSYISDSSRTIYYADSVKGRFTIFRDNAKNSLYLQMNSLRDEDTAVYYCARDPDTAHDRYFDSWGQGTLVTVSS
# chain 2: DIQLTQSPSFLSASVGDRVTITCRASQVIGSYFAWYQQKPGKAPKLLIYATSTLQSGVPSRFSGSGSGTEFTLTISGLQPEDFATYYCQQLNTYPPITFGPGTKVDIK
# B2: C6-G03 (protein)
# chain 1: VQLVESGGGLVQPGRSLRLSCAASGFSFDDFAMHWVRQAPGKGLEWVSGVTWNSGSRDYADSVKGRFTISRDNDKNSLSLQMNSLRPEDTAVYYCVKGRGGVYTGYGPRYLDYWGQGTLVTVS
# chain 2: DIQMTQSPTSLSASVGDRVSITCRASQSVITYLHWYQQKPGKAPKLLISAASSLQSGVSSRFSGSGSGTDFTLTISSLQPEDYATYYCQQSYSSPRTFGPGTKVDIK
# B3: antibody 1B02 (protein)
# chain 1: VQLLESGGGLVPPGGSLRLSCAASGLSFSSYSMSWVRQAPGKGLEWVSAIGGLHGSTYYADFVEGRFTISRDNSRDTVFLQMNYLRAEDTALYYCASDLDGDDGTWFDNWGQGTLVTVSS
# chain 2: EIVMTQSPATLSVSPGERATLSCRASQSVSTNLTWYQQKPGQAPRLLIYGASTRASGIPASFSGGGSGTEFTLTISSLQSEDFAVYFCQQYNDWPPTFGQGTKVEIK
# B4: K77-1C11 (protein)
# chain 1: QVQLQESGPGLVKPSETLSLSCTVSGGSISTYDWSWIRQSPGKGLEWIGCIYYIGRTEYNPSLKSRVTISVDTSKNQFSLKLSSVTAADTAVYYCARDGRGYSGYDYYNYYGMDAWGQGTTVTVSS
# chain 2: NFMLTQPHSVSESPGKTVVISCTRSSGSIDSNYVQWYQQRPGSSPTIVIYVDNQRPSGVPDRFSGSIDSASNSASLTISGLKTEDEADYYCQSNDNNNRVFGGGTKLTVL
# B5: AG9-4A02 (protein)
# chain 1: VQLVESGGGWVKPGGSLRLSCEASGFKFSDHYMAWIRQAPGKGLEWISYISDNGKTEYYADSVRGRFTVSRDNGQYFLYLEMNNVRVEDTAVYYCAREPGQWLEGWFDPWGQGTLVTVSS
# chain 2: DIVMTQSPLSLRVTPGEPASISCKSSQSLLHGNGYNYLDWYLQRPGQSPQLLIYLGSNRASGVPDRFSGSGSGTDFTLKISRVEAEDVGVYYCMQALHTPPWTFGQGTKVEIK
# B6: antibody 4F05 (protein)
# chain 1: VQLQQWGAGVWRPSETLSLTCGVSGGSFNGNYWTWIRQSPGKGLEWMGEVDDNGRTNYNPSLTGRVSMSVDTTKKQFSLNLTSMTAADTAVYYCARRGSGSRLVRADYYIDVWGQGTTVTVSS
# chain 2: EIVLTQSPGILSLSPGERATLSCRASQTVGSSYLAWYQQRPGQPPRLLIFGSSTRATGVPDRFSGSGSGTDFTLTISRLEPEDFAVYYCQRYGPSPRFTFGPGTKVDIK
# Biological target: Influenza A H1N1 A/Michigan/45/2015 hemagglutinin ectodomain
# Test: mRNA display binding score; higher = more enriched on the antigen
# Details: antigen blocked with: 2 µM CR9114 IgG
# Description: (§1)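 A pool of natively paired antibodies, displayed as scFv on mRNA, was selected once on antigen-coated beads and sequenced before and after; two replicates.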
row,Binder,mRNA display binding score
1,B1,inactive: 1.2
2,B2,inactive: -0.00872
3,B3,inactive: -0.409
4,B4,inactive: -0.0887
5,B5,inactive: 0.22
6,B6,inactive: 0.664

# Same assay, conditions: antigen blocked with: nothing
row,Binder,mRNA display binding score
1,B1,inactive: 1.7
2,B2,inactive: 0.917
3,B3,inactive: 0.475
4,B4,inactive: 0.129
5,B5,inactive: 0.611
6,B6,inactive: 1.7

# Biological target: Influenza A H1N1 A/Solomon Islands/3/2006 hemagglutinin ectodomain
# Test: as above
# Details: antigen blocked with: 2 µM CR9114 IgG
# Description: as §1
row,Binder,mRNA display binding score
1,B1,inactive: 1.13
2,B2,inactive: 0.085
3,B3,inactive: 0.458
4,B4,inactive: -0.0162
5,B5,inactive: 0.521
6,B6,inactive: 0.528

# Same assay, conditions: antigen blocked with: nothing
row,Binder,mRNA display binding score
1,B1,inactive: 1.33
2,B2,inactive: 0.181
3,B3,inactive: -0.454
4,B4,inactive: 0.133
5,B5,inactive: 0.0531
6,B6,inactive: 1.33

# Biological target: Influenza A H3N2 A/Singapore/INFIMH-16-0019/2016 hemagglutinin ectodomain
# Test: as above
# Details: antigen blocked with: nothing
# Description: as §1
row,Binder,mRNA display binding score
1,B1,inactive: 0.86
2,B2,inactive: 0.0979
3,B3,inactive: 0.999
4,B4,inactive: 0.0997
5,B5,inactive: 0.546
6,B6,inactive: 1.05

# Biological target: Influenza A H5N1 A/Qinghai/1A/2005 hemagglutinin ectodomain
# Test: as above
# Details: antigen blocked with: 2 µM CR9114 IgG
# Description: as §1
row,Binder,mRNA display binding score
1,B1,inactive: 7.72
2,B2,inactive: 0.33
3,B3,inactive: 0.435
4,B4,inactive: -0.109
5,B5,inactive: 0.327
6,B6,inactive: 4.33

# Same assay, conditions: antigen blocked with: nothing
row,Binder,mRNA display binding score
1,B1,inactive: 7.25
2,B2,inactive: 0.319
3,B3,inactive: 0.09
4,B4,inactive: 0.204
5,B5,inactive: 0.244
6,B6,inactive: 4.41

# Biological target: Influenza A H7N9 A/Shanghai/2/2013 hemagglutinin ectodomain
# Test: as above
# Details: antigen blocked with: 2 µM CR9114 IgG
# Description: as §1
row,Binder,mRNA display binding score
1,B1,inactive: 0.224
2,B2,inactive: -0.702
3,B3,inactive: -0.353
4,B4,inactive: -0.0241
5,B5,inactive: -0.167
6,B6,inactive: 0.525

# Same assay, conditions: antigen blocked with: nothing
row,Binder,mRNA display binding score
1,B1,inactive: 2.07
2,B2,inactive: 0.865
3,B3,inactive: 0.498
4,B4,inactive: 0.15
5,B5,inactive: 0.723
6,B6,inactive: 1.8

# Biological target: Influenza B/Lee/1940 hemagglutinin ectodomain
# Test: as above
# Details: antigen blocked with: 2 µM CR9114 IgG
# Description: as §1
row,Binder,mRNA display binding score
1,B1,inactive: -0.596
2,B2,inactive: -0.742
3,B3,inactive: -1.04
4,B4,inactive: 0.0633
5,B5,inactive: 0.154
6,B6,active: 21.7

# Same assay, conditions: antigen blocked with: nothing
row,Binder,mRNA display binding score
1,B1,inactive: 0.455
2,B2,inactive: -0.188
3,B3,inactive: -0.0633
4,B4,inactive: -0.171
5,B5,inactive: -0.168
6,B6,active: 42.4

# Biological target: Influenza B/Phuket/3073/2013 hemagglutinin ectodomain
# Test: as above
# Details: antigen blocked with: 2 µM CR9114 IgG
# Description: as §1
row,Binder,mRNA display binding score
1,B1,active: 26.8
2,B2,inactive: -0.068
3,B3,inactive: 0.0981
4,B4,inactive: 0.233
5,B5,inactive: 3.29
6,B6,inactive: 6.88

# Same assay, conditions: antigen blocked with: nothing
row,Binder,mRNA display binding score
1,B1,active: 22.8
2,B2,inactive: 0.0863
3,B3,inactive: 0.0551
4,B4,inactive: -0.0805
5,B5,inactive: 1.32
6,B6,active: 5.89
